# Laboratory results published in PubChem BioAssay AID2782 (National Center for Advancing Translational Sciences (NCATS), 2010).
# Inconclusive means that the source gave no clear call. Such entries were picked first, then a sample of the others. Potencies of inconclusive entries are doubtful fits and often do not repeat. A note “side channel” means that the fit belongs to a control or component signal, not to the main read-out. Active and inactive are the calls of the source. Calls follow the shape of the dose curve; as a rule, active = well fitted inhibition curve with a large enough effect in the polarisation, with a control signal flat (not every such curve was filed as active); inconclusive = small, poorly fitted or top-dose-only effect, or effect the other way, or a change in a side signal; inactive = no such curve, though single readings can be large or run the other way; the % refers to the polarisation.
# Assay: Confirmation of Inhibitors Targeting the Menin-MLL Interaction in MLL Related Leukemias: Competition With Texas Red Labeled MLL-derived Mutant Peptide
# Conditions: fluorescence polarization, Texas Red MLL peptide displacement; FP change, negative = inhibition: at 94.6 µM (top of the series) unless noted
# Outline: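 Hits from the primary screen were retested: compounds were incubated 1 hr at ambient with 200 nM menin, 50 nM Texas Red mutant peptide and 25 nM fluorescein wild-type peptide (Tris pH 7.5, BSA-supplemented buffer), then fluorescence polarization was read.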
# % is scaled to controls: 0 for no effect and ±100 for the full control effect; potency is read from the fitted curve at half-maximal effect; tags tell the direction and shape of the fitted curve or compound fluorescence and quenching.
Structure (SMILES),Potency,"FP change, negative = inhibition"
O=C(NC(=S)N1CCCc2ccccc21)c1ccc([N+](=O)[O-])cc1,"inconclusive: 224 µM [quencher, side channel, single point]",
COc1ccccc1NS(=O)(=O)c1cc(NC(=O)Nc2ccccc2)ccc1N1CCCCC1,"inconclusive: 56.4 µM [fluorescent, side channel, partial curve]",
OC(c1ccccn1)(c1ccccn1)c1ccccn1,,inactive: -1.99% [at 288 µM]
CCc1nnc(NC(=O)C2(C)COC(c3ccc(OC)cc3)OC2)s1 (stereo unspecified),,inactive: 12.7%
Cc1cccc(NC(=O)CSc2nc3ccc(NC(=O)CSc4nnnn4-c4ccccc4)cc3s2)c1C,"inconclusive: 20 µM [inhibitor, full curve]",
O=C(O)c1cc(S(=O)(=O)O)cc(Nc2c3ccccc3nc3ccccc23)c1O,"inconclusive: 178 µM [inhibitor, partial curve, poor fit]",
CCCN(CCC)CCCNC(=S)Nc1ccc2nc(N3CCCC3)cc(C)c2c1,"inconclusive: 158 µM [inhibitor, partial curve, poor fit]",
O=C(c1cc(F)c(F)cc1Cl)N1CCN(c2ncccn2)CC1,,inactive: 13.9%
CC(=O)Nc1ccc(-c2cc(-c3ccc(NC(C)=O)cc3)nc(-c3ccc(NC(C)=O)cc3)n2)cc1,"inconclusive: 35.5 µM [fluorescent, side channel, full curve]",
Cc1ccc(NC(=O)C(OC(=O)c2ccc(C=O)cc2)c2ccccc2)cc1Cl (stereo unspecified),"inconclusive: 126 µM [fluorescent, side channel, partial curve]",
CCN(CC)c1nc(-c2ccc(C(=O)NN)cc2)nc(-c2ccc(C(=O)NN)cc2)n1,"inconclusive: 251 µM [inhibitor, single point]",
Cc1ccccc1-c1cncnc1NC1CCNCC1,active: 126 µM,
Cc1ccc(C(=O)Sc2cccccc2=O)cc1,,inactive: 3.99% [at 288 µM]
COc1cccc(-c2nn(-c3ccccc3)cc2/C=C\C(=O)c2cccs2)c1,"inconclusive: 17.8 µM [inhibitor, full curve]",
Cc1c(CCOC(=O)CC23CC4CC(CC(C)(C4)C2)C3)sc[n+]1Cc1ccc([N+](=O)[O-])cc1,"inconclusive: 158 µM [inhibitor, partial curve, poor fit]",
CCOC(=O)/C=c1\s/c(=C\c2ccc(-c3ccccc3)cc2)c(=O)n1CC(=O)NCc1ccc2c(c1)OCO2,"inconclusive: 39.8 µM [fluorescent, side channel, partial curve]",
CCN1C(=O)c2ccccc2S(=O)(=O)c2ccc(C(=O)NCCCN(CC(C)C)CC(C)C)cc21,,inactive: 13%
CN1CCN(CC(=O)Nc2ccc(S(=O)(=O)N(C)C)cc2)CC1,,inactive: 0.151%

Structure (SMILES),Potency,"FP change, negative = inhibition"
CN(C)[C@H]1C(=O)C(C(=O)NCN2CCCC2)=C(O)[C@]2(O)C(=O)C3=C(O)c4c(O)cccc4[C@](C)(O)[C@H]3C[C@H]12,"inconclusive: 31.7 µM [quencher, side channel, full curve]",
CN(C)CCc1c[nH]c2ccc(CC3COC(=O)N3)cc12 (stereo unspecified),,inactive: -9.96% [at 288 µM]
Cc1cc2cc(C(c3nnnn3CC3CCCO3)N3CCCc4ccccc43)c(=O)[nH]c2cc1C (stereo unspecified),"inconclusive: 10 µM [fluorescent, side channel, partial curve]",
Cc1ccc(-c2csc(NC(=O)c3ccc(S(=O)(=O)N4CCc5ccccc54)cc3)n2)cc1,"inconclusive: 71 µM [fluorescent, side channel, partial curve]",
CN(C)/C=C(/C(=O)c1ccc(Cl)cc1)S(=O)(=O)c1ccc(Cl)cc1,,inactive: 6.48% [at 288 µM]
CC(=O)NC1C(=O)N(CCN2CCOCC2)c2ccc(C)cc21 (stereo unspecified),active: 71 µM,
COc1ccc(NC(=O)N2CC[C@@]3(CCCN(C(=O)c4csnn4)C3)C2)cc1,,inactive: 17.4%
O=C(CSc1nnnn1-c1ccc(O)cc1)N1N=C(c2ccc3ccccc3c2)CC1c1ccccc1 (stereo unspecified),"inconclusive: 17.8 µM [inhibitor, full curve]",
COc1ccc(N(C(=O)c2ccncc2)S(=O)(=O)c2ccc(Cl)cc2)cc1,,inactive: 4.85%
COCCNC(=O)C(OC(=O)c1nsc(Cl)c1Cl)C(C)C (stereo unspecified),,inactive: 11.4%
CCCOc1ccc(C(=O)NNC(=S)NC(=O)c2cc(-c3ccc(Cl)cc3)nc3ccccc23)cc1,"inconclusive: 25.1 µM [quencher, side channel, full curve]",
O=C(CSc1nnc(-c2c[nH]c3ccccc23)o1)N1c2ccccc2CCc2ccccc21,"inconclusive: 79.6 µM [fluorescent, partial curve]",
Oc1ccc(Nc2ncnc3c2oc2ccccc23)cc1,"inconclusive: 141 µM [quencher, single point]",
Cc1[nH][nH]c(=O)c1C(c1c(C)[nH][nH]c1=O)c1cn(Cc2ccccc2Cl)c2ccccc12,"inconclusive: 224 µM [quencher, side channel, single point]",
C/C(=N\NC(=O)c1nnn(-c2nonc2N)c1C)c1ccc(-c2ccccc2)cc1,,inactive: 34.5%
COc1ccccc1CNCC(=O)Nc1ccc(C#N)cc1,,inactive: -25.5% [at 288 µM]
C=C(C)CNC(=S)Nc1cccc2cnccc12,,inactive: 5.3%
NC(=O)c1ccc(NC(=O)c2cncn2-c2ccccc2)cc1,,inactive: 8.85%
